Reference: article PMC13538678
Results are given in words; binding and its absence hold for the method and conditions named. Binding seen in cells or lysates may run through a third protein. Some results given as binding are weak or reduced against the parent protein; the word gives no strength. For some assays here: Where a sequence is shown, tags or fusion partners need not be part of it.

By UniProt entry, the sequences of proteins in these tests, tags left out. Residues count along the entry.
UniProt P24593, residues 21-272: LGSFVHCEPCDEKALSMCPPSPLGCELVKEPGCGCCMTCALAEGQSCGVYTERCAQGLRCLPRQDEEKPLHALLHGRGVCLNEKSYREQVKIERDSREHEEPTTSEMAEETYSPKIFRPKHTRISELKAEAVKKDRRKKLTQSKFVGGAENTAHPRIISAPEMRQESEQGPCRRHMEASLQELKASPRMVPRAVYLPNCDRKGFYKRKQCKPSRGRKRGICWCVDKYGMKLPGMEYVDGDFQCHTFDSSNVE
UniProt Q86U44: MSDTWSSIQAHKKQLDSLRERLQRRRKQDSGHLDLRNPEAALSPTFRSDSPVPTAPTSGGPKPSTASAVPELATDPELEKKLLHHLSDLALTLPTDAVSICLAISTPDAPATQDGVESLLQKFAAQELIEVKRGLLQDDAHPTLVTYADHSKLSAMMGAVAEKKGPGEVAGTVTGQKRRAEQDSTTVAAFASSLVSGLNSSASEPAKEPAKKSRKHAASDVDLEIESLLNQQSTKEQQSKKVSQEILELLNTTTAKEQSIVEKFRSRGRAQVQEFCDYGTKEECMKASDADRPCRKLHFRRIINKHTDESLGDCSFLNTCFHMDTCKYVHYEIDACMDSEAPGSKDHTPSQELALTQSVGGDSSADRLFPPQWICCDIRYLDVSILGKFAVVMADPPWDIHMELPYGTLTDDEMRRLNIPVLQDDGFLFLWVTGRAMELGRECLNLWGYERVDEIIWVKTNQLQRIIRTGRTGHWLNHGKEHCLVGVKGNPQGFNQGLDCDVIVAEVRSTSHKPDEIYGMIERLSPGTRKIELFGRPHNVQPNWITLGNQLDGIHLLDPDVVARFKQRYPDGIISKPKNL

How the values were obtained:
[1] = biological target: T1, Flag-ΔMT-A70 (METTL14 with deletion of 186-363, MT-A70 domain) (UniProt Q9HCE5); test: co-IP; 293 T cells co-transfected with HA-IGFBP5 and Flag-METTL14 constructs; lysate treated with RNase A and T1; anti-Flag M2 magnetic beads, 4 h at 4 °C; western blot
T1 sequence: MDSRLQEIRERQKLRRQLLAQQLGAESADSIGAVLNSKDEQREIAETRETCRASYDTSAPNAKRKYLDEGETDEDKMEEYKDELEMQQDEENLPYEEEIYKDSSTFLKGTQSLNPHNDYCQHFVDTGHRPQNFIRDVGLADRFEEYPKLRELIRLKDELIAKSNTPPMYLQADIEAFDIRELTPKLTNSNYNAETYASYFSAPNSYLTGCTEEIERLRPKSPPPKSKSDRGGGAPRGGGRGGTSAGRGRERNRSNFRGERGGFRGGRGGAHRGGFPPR

[2] = biological target: T2, wild-type Flag-METTL14 (full-length METTL14, 1-456 amino acids) (UniProt Q9HCE5); test: as above
T2 sequence: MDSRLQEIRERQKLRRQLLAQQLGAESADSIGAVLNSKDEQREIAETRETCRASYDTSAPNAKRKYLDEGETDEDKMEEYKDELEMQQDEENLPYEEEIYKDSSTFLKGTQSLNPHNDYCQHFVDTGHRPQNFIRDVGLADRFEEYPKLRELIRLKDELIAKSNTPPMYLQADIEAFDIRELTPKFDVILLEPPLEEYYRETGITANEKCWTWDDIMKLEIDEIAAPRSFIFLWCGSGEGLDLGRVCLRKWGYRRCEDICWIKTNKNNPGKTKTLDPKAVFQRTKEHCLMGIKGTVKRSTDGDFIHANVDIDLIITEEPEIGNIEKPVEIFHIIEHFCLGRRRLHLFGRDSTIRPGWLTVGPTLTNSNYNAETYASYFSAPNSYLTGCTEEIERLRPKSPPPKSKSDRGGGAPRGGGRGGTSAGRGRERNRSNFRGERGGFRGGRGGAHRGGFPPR

[3] = biological target: T3, methyltransferase-like 14 (METTL14) (human (endogenous in HUVECs)) (UniProt Q9HCE5); test: co-IP; HUVECs; reverse (reciprocal) immunoprecipitation (Fig. 2b); precipitating antibody not stated
T3 sequence: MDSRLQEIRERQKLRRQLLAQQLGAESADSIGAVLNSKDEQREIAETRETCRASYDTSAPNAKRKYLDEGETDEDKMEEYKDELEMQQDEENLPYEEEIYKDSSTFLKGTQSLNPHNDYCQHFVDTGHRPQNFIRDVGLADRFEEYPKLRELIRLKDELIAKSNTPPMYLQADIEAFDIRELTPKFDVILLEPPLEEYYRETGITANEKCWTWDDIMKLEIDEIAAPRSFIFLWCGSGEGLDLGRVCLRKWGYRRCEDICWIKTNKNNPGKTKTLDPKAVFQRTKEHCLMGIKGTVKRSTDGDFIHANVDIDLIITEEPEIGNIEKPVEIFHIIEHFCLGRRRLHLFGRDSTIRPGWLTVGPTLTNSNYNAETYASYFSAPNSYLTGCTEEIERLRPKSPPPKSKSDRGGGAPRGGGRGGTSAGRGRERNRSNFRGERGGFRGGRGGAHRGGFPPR

[4] = biological target: IGFBP5 (human (endogenous in HUVECs)) (UniProt P24593); test: co-IP; HUVECs; co-immunoprecipitation of IGFBP5 with METTL14, METTL3 and WTAP (Fig. 2a); precipitating antibody not stated

In the case of “HA-tagged IGFBP5 (from UniProt P24593 21-272)”, the binding [1] is reported as “no binding” and the binding [2] is reported as “binds”.

IGFBP5 (from UniProt P24593 21-272) was tested, and the binding [3] was “binds”.

“methyltransferase-like 3 (METTL3) (from UniProt Q86U44 1-580)” was tested, and the binding [4] was “no binding”.

B1: methyltransferase-like 14 (METTL14) (protein, UniProt Q9HCE5 1-456)
chain: MDSRLQEIRERQKLRRQLLAQQLGAESADSIGAVLNSKDEQREIAETRETCRASYDTSAPNAKRKYLDEGETDEDKMEEYKDELEMQQDEENLPYEEEIYKDSSTFLKGTQSLNPHNDYCQHFVDTGHRPQNFIRDVGLADRFEEYPKLRELIRLKDELIAKSNTPPMYLQADIEAFDIRELTPKFDVILLEPPLEEYYRETGITANEKCWTWDDIMKLEIDEIAAPRSFIFLWCGSGEGLDLGRVCLRKWGYRRCEDICWIKTNKNNPGKTKTLDPKAVFQRTKEHCLMGIKGTVKRSTDGDFIHANVDIDLIITEEPEIGNIEKPVEIFHIIEHFCLGRRRLHLFGRDSTIRPGWLTVGPTLTNSNYNAETYASYFSAPNSYLTGCTEEIERLRPKSPPPKSKSDRGGGAPRGGGRGGTSAGRGRERNRSNFRGERGGFRGGRGGAHRGGFPPR
In the case of B1, the binding [4] is reported as “binds”.
